The whole screen tested about 310,000 compounds, of which about 2,200 (0.71%) showed an effect of 50% or more. The effect is printed as a negative number. Some of the results follow. Where a SMILES comes first, the peptide text is derived from it. [ ]: non-standard residue; d: D form. The star is where a group is joined. ξ: configuration not given here. Cbz = O=C(OCc1ccccc1)*; ξV = CC(C)C(N)C(=O)O; OtBu = CC(C)(C)O*
Each compound was assayed against human ether-à-go-go-related gene (hERG) potassium channel (human, UniProt Q12809) (assay: primary screen, population patch clamp on CHO cells stably expressing hERG).
Sequence of human ether-à-go-go-related gene (hERG) potassium channel (Q12809 whole entry, looked up): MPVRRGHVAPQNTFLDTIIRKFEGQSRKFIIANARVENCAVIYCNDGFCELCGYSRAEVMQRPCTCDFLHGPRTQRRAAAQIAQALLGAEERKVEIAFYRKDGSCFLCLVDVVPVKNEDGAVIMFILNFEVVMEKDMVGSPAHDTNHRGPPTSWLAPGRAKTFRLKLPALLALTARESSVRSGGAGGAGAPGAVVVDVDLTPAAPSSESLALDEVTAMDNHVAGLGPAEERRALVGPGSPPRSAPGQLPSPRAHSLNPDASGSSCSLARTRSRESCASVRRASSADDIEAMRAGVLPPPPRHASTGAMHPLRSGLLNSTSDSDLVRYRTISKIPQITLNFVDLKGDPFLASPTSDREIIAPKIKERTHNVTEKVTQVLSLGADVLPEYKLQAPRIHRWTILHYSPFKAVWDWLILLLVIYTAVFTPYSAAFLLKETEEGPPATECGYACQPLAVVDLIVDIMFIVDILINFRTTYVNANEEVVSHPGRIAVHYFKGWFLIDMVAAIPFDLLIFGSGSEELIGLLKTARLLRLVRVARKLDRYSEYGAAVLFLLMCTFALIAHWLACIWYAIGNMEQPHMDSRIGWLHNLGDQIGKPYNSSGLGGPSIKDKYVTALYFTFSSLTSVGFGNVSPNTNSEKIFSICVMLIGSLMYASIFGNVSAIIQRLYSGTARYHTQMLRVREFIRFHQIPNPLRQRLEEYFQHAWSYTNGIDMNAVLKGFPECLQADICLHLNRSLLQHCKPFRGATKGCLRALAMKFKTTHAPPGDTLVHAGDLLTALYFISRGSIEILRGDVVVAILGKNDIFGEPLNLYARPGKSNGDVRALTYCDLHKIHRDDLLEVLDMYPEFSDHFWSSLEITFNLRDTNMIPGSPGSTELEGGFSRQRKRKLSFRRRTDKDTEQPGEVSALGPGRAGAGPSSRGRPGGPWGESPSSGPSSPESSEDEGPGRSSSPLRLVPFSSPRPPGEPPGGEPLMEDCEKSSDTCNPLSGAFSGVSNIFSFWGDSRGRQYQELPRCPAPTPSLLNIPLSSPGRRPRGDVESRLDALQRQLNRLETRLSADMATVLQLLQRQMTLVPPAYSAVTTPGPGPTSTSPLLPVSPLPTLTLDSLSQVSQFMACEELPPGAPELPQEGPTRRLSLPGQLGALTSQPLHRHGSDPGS

Point of comparison: `COc1ccc(-c2n[nH]c(=S)n2Cc2ccco2)cc1`, “hERG current change (%, negative = inhibition) at 1uM” value 4.89%. Against it:
- Nc1nc(NC(=O)c2cccnc2)nn1-c1ccccc1 — higher, 18.9%
- Cc1ccc(C(C(=O)NC2CCCC2)N(C(=O)Cc2cccs2)c2cccc(C)c2C)o1 (stereo not drawn) — higher, 6.51%
- Cc1cc(C)cc(N(CCC#N)C(=O)COC(=O)CCc2c[nH]c3ccccc23)c1 — lower, -13.2%
- CN=C(Nc1ccc(Cl)cc1)c1ccc(C(F)(F)F)cc1 — lower, -2.59%
- Cc1ccc2cccc(Oc3cnccn3)c2n1 — higher, 10.7%
- CC1CCCN(S(=O)(=O)c2ccc(C(=O)Nc3nnc(-c4ccncc4)o3)cc2)C1 (stereo not drawn) — higher, 13.9%
- CCOC(=O)c1ccc(NC(=S)NCCC2=CCCCC2)cc1 — higher, 33.9%
- NC(=O)c1cc(-c2ccccc2)nc2ccc(Br)cc12 — higher, 11.9%
- Cc1cc(NC(=O)CS(=O)(=O)c2ccc(F)cc2)no1 — lower, 4.74%
- CC(=O)Nc1sc(N/N=C/c2ccc(C)cc2)nc1-c1ccc(C)cc1 — higher, 6.64%
- CCN1C(=O)CS/C1=N\S(=O)(=O)c1ccc(Cl)cc1 — higher, 13.6%
- Cc1ccccc1NC(=O)C(C)N1C(=O)c2ccccc2C1=O (stereo not drawn) — higher, 12.9%
- O=C(NCCCc1ccccc1)c1ccccc1O — lower, 3.2%
- COc1ccc(-c2nn(-c3ccccc3)cc2CN(C)CCn2ccnc2C)c(F)c1 — lower, -0.372%
- Cc1ccc2[nH]c(=O)c(CN(Cc3ccccc3)Cc3nnnn3C3CCCC3)cc2c1 — higher, 6.79%
- N/C(=N\OC(=O)CCC1CCCCC1)c1cccc([N+](=O)[O-])c1 — lower, 3.64%
- C[n+]1ccccc1C1CCCC/C1=N\NC(N)=S.[Cl-] (stereo not drawn) — higher, 29.2%
- CCn1ncc(C2=NOC(C(=O)Nc3ccccc3C(=O)OC)C2)c1C (stereo not drawn) — lower, 0.445%
- O=[N+]([O-])c1ccccc1OCCN1CCCC1 — higher, 11.7%
- CC(=O)c1c(N2CCCCC2)nc(=O)n(-c2ccccc2)c1C — higher, 15.4%
- CCOc1ccc(CNCCCSc2ncccn2)cc1OC.Cl — higher, 9.42%
- Cc1ccc(N2C(=O)Nc3ccccc3C2(O)C(=O)N2CCN(c3ccccn3)CC2)cc1C (stereo not drawn) — higher, 4.92%
- c1csc(-c2nnsc2-c2nc3ccccc3[nH]2)c1 — higher, 8.15%
- Cc1ccc(C2NC(=O)CCC2[N+](=O)[O-])cc1 (stereo not drawn) — higher, 11.6%
- COc1ccc(-c2csc(NCc3ccco3)n2)cc1 — higher, 6.85%
- O=C(Nc1ccc2c3c(cccc13)CC2)c1cccc([N+](=O)[O-])c1 — lower, 3.11%
- Cc1cccc(NC(=O)CCCN=C2NS(=O)(=O)c3ccccc32)c1C — higher, 13.9%
- COc1ccc(Nc2oc(-c3ccccc3F)nc2C#N)cc1 — higher, 19%
- O=C1c2cccc(OCC(=O)N3CCCc4ccccc43)c2CCN1Cc1ccccc1 — higher, 5.51%
- C/C(=N\NC(=O)c1ccc([N+](=O)[O-])c(C)c1)c1ccccc1Cl — lower, 2.86%
- O=C(O)c1cc([N+](=O)[O-])c(Sc2nc3ccccc3[nH]2)c([N+](=O)[O-])c1 — higher, 9.49%
- Cc1ccc2c(C)[nH]c(=O)cc2c1 — lower, -5.85%
- Cc1cc(C)cc(NC(=O)CSc2nnc(Cn3c(=O)sc4ccccc43)n2C)c1 — higher, 5.73%
- CCN(c1ccccc1)c1nc(=O)c2cccnc2s1 — higher, 5.88%
- CCCCn1c(N)c(N(CCOC)C(=O)CSCc2c(C)noc2C)c(=O)[nH]c1=O — higher, 14.6%
- Cc1cnc(C(=O)OCC(=O)Nc2ccc(Oc3ccccc3)cc2)cn1 — higher, 6.79%
- COc1ccc2c(c1)nc(SCC(=O)C(C)(C)C)n2C — higher, 8.92%
- Cc1c(C(=O)NCCSc2ccc(Cl)cc2)cccc1[N+](=O)[O-] — higher, 12.2%
- COc1ccc(N2C(=O)C(CC(=O)Nc3ccccc3)N(CCc3ccc(OC)c(OC)c3)C2=O)cc1 (stereo not drawn) — higher, 6.87%
- O=C(CCn1nnc2ccccc2c1=O)NCC1CCC(C(=O)O)CC1 (stereo not drawn) — higher, 8.53%
- O=C(Nc1ccc(S(=O)(=O)N2CCOCC2)cc1)C1CC(=O)N(c2ccc(F)cc2)C1 (stereo not drawn) — higher, 16.2%
- C=CCNC(=S)N/N=C(\C)c1cccnc1 — lower, 2.38%
- O=C(O)c1cccc(-c2nnn(Cc3ccccc3Cl)n2)c1 — lower, -2.88%
- CC(C)C(NC(=O)OCc1ccccc1)C(=O)NCC(=O)OC(C)(C)C (stereo not drawn) (Cbz-[ξV]-Gly-OtBu) — higher, 11.3%
- Cc1ccc(OCC(=O)N2N=C(c3ccc(Cl)cc3)CC2c2ccco2)c([N+](=O)[O-])n1 (stereo not drawn) — lower, -40.5%
- O=[N+]([O-])c1cccc(P(=O)(O)c2cccc([N+](=O)[O-])c2)c1 — lower, 4.21%
- Cc1noc(C)c1CC(=O)N1CCCC(C(=O)c2ccc(C(C)(C)C)cc2)C1 (stereo not drawn) — higher, 9.58%
- CC(C)CNC(=O)c1cccc(NC(=O)CCc2ccccc2)c1 — lower, 3.76%
- Cc1ccccc1OCc1nc(-c2cccnc2)no1 — lower, 0.217%
- Cc1nc2cc(NC(=O)NCc3ccc4c(c3)OCO4)ccc2o1 — lower, 4.78%
- Cn1c(=O)[nH]c(=O)c2c1nc(Br)n2Cc1ccccc1F — higher, 6.31%
- CC(C)C(NS(=O)(=O)c1cccs1)C(=O)N1CCC(C(N)=O)CC1 (stereo not drawn) — higher, 13.1%
- COc1ccc(Cl)cc1NS(=O)(=O)c1cc(Cl)ccc1OC — higher, 5.5%
- CC(C)Oc1ccc(S(=O)(=O)N2CCCCC2)cc1NC(=O)CN1C(=O)NC(C)(c2ccccc2)C1=O (stereo not drawn) — lower, 0.576%
- Cc1ccc(S(=O)(=O)c2nc(-c3ccco3)oc2SCC(=O)NCC2CCCO2)cc1 (stereo not drawn) — higher, 10.8%
- COc1cc(/C=C/C(=O)Nc2ccc(N3CCCCC3)c(S(=O)(=O)Nc3ccccc3Cl)c2)cc(OC)c1OC — higher, 8.14%
- O=C(O)C(CO)(c1ccccc1)c1ccccc1 — lower, 1.48%
- CCCOc1ccccc1C1NC(=O)NC(C)=C1C(=O)OCCOCC (stereo not drawn) — higher, 12.7%
- CCOC(=O)CN1C(c2ccc(O)cc2)Nc2ccc(Br)cc2C1c1ccccc1 (stereo not drawn) — higher, 11.5%
- S=C1NC2(CCCC2)N=C1c1ccccc1 — higher, 6.21%
- Cc1ccc(C(=O)NCCc2nnc3c(C(F)(F)F)cc(Cl)cn23)o1 — higher, 12.4%
- O=C1Nc2cc(C(=O)N3CCC4(CC3)OCCO4)ccc2S/C1=C\c1ccccc1 — higher, 27.2%
- c1ccc(-n2nnnc2SCc2ccccn2)cc1 — higher, 8.35%
- CS(=O)(=O)c1nc(S(=O)(=O)c2ccc(Cl)cc2)c(N2CCOCC2)s1 — higher, 15.7%
- CC(=O)c1cccc(NC(=O)CSc2nnc(C(C)N(C)C)n2-c2ccc(F)cc2)c1 (stereo not drawn) — lower, 1.78%
- CCOC(=O)/C(O)=C(\C#N)c1nc2ccccc2[nH]1 — higher, 12.8%
- COc1ccc(Nc2oc(COc3cccc(C)c3)nc2C#N)cc1 — higher, 7.52%
- O=C(NCC(O)c1ccccc1)c1cccs1 (stereo not drawn) — lower, -11.3%
- Cc1ccc(C(C2C(=O)CC(C)(C)CC2=O)C2C(=O)CC(C)(C)CC2=O)s1 — higher, 18.5%
- CCOC(=O)[C@H](CCc1ccccc1)N[C@@H](C)C(=O)N1C(C(=O)O)C[C@@H]2CCC[C@@H]21 (stereo partly drawn) — higher, 17.5%
- CCc1cccc(NC(=O)CCCN2C(=O)NC(C)(C)C2=O)c1 — higher, 15.7%
- CCOC(=O)C1=C(C)NC(C)=C(C(=O)OCC)C1C(=O)OCC(N)=O — lower, 2.4%
- O=C1NC2=C(C(=O)c3ccccc32)C(c2ccccc2)N1 (stereo not drawn) — lower, 0.297%
- O=C(c1ccc(CS(=O)c2ccc(F)cc2)o1)N1CCN(C2CCCCC2)CC1 (stereo not drawn) — higher, 13.7%
- Cc1cccc(N2CCN(S(=O)(=O)c3ccc4c(c3)CCN4C(=O)CCC(=O)O)CC2C)c1 (stereo not drawn) — higher, 17.3%
- CC(=O)Nc1cc(C(C)(C)C)c(O)c(C(C)(C)C)c1 — higher, 13.4%
- CN(C)CCOC1c2ccccc2CCc2ccc3ccccc3c21.O=C(O)C(=O)O (stereo not drawn) — higher, 7.92%
- Cc1ccc(S(=O)(=O)/N=C(/c2ccc(F)cc2)N2CCOCC2)cc1 — higher, 8.13%
- CC(=O)Nc1ccc(NC(=O)C2CCCN(C(=O)c3ccc(Cl)cc3)C2)cc1 (stereo not drawn) — higher, 10.9%
- COc1ccc(S(=O)(=O)CCc2nnc(NC(C)=O)s2)cc1 — higher, 18.7%
- C=CCN1C(=O)c2ccccc2Sc2ccc(C(=O)N3CCN(C)CC3)cc21 — higher, 9.34%
- Cc1nn(-c2ccccc2)c(Cl)c1/C=C(\CC(=O)O)c1nc2ccccc2s1 — lower, 2.95%
- COc1ccc([C@@H]2CC=C(C(=O)O)CN2S(=O)(=O)c2ccc(C)cc2)cc1OC — higher, 16.7%
- Cc1nc(Nc2ccc(S(=O)(=O)N3CCCCC3C)cc2)c2nnn(Cc3ccccc3)c2n1 (stereo not drawn) — higher, 13.2%
- COc1ccccc1N1CCN(C(=O)CCNC(=O)Cn2ccc3ccccc3c2=O)CC1 — higher, 7.7%
- Cc1cc(OCC(=O)Nc2ccncc2)ccc1Cl — higher, 9.21%

Source: PMC4336329 (PLoS ONE, 2015)
